{"source": "PubChem BioAssay AID504832", "about": "(National Center for Advancing Translational Sciences (NCATS), 2011)", "note": "The whole screen tested about 310,000 compounds, of which about 18,000 (5.8%) were called active. Inconclusive results, whose numbers are uncertain, are shown with a selection of clear calls. The call rests on the fitted dose curve; in most records, active means well fitted inhibition curve with a large enough effect; inconclusive means small, poorly fitted or top-dose-only effect, or another doubt; inactive means no such curve, though single readings can be large or run the other way. No potency is given beside an inconclusive call; the fits are too rough. On the % scale 0 is the no-effect control and ±100 the full control effect; potency means the concentration at half of the fitted maximal effect; tags describe the fitted curve by direction and shape."}
{"assay": "Primary qHTS for delayed death inhibitors of the malarial parasite plastid, 48 hour incubation", "details": "P. falciparum luciferase growth in erythrocytes; series mostly up to 28.7 µM; activity change, negative = inhibition: at the top concentration", "method_in_brief": "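In quantitative HTS format, infected erythrocytes bearing luciferase-reporter parasites were treated for a single generation at 37 C. Luminescence after adding detection reagent served as the growth measure.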"}
{"smiles": "COc1ccccc1/C=C/CN1CCOCC1", "activity change, negative = inhibition": "inactive: 9.97%"}
{"smiles": "COc1ccc(C2/C(=C(/O)c3ccc(C)cc3)C(=O)C(=O)N2CC2CCCO2)cc1OC", "note": "(stereo not drawn)", "activity change, negative = inhibition": "inactive: -1.53%"}
{"smiles": "O=C(CC(=O)Nc1cccc(F)c1)Nc1cccc(F)c1", "Potency": "inconclusive [inhibitor, partial curve]"}
{"smiles": "CCCCOn1c(C)c(C(=O)OCC)c2c3no[n+]([O-])c3ccc21", "Potency": "inconclusive [inhibitor, full curve, poor fit]"}
{"smiles": "CC1(C)C2CCC(C2)C1(C)NC(=O)CNCC1CCCCC1", "note": "(stereo not drawn)", "activity change, negative = inhibition": "inactive: -27.4%"}
{"smiles": "O=C(NCCN1CCN(C(=O)NC2CCCCC2)CC1)NC1CCCCC1", "activity change, negative = inhibition": "inactive: 23.7%"}
{"smiles": "COc1ccccc1OCCSc1nc2ccccc2c(=O)[nH]1", "activity change, negative = inhibition": "inactive: 18%"}
{"smiles": "Cn1c(O)c(C2=NN(C(=O)CCl)C(c3ccccc3)C2)c(=O)n(C)c1=O", "note": "(stereo not drawn)", "Potency": "inconclusive [inhibitor, single point]"}
{"smiles": "CC(=O)Oc1ccc2c(=O)c(-c3nc4ccccc4s3)coc2c1", "activity change, negative = inhibition": "inactive: 369%"}
{"smiles": "CSc1nnc2c3cc(F)ccc3n(C)c2n1", "Potency": "inconclusive [inhibitor, partial curve]"}
{"smiles": "COc1ccccc1OCC(=O)Nc1cc(S(=O)(=O)N2CCCCC2)ccc1N1CCCCC1", "Potency": "active: 5.22 µM"}
{"smiles": "CN(C)c1ccc(Nc2ccc([N+](=O)[O-])cn2)cc1", "activity change, negative = inhibition": "inactive: 151%"}
{"smiles": "CC(NC(=O)c1ccc(-c2cc(C(F)(F)F)ccc2Cl)o1)c1ccccc1", "note": "(stereo not drawn)", "Potency": "inconclusive [inhibitor, single point]"}
{"smiles": "O=C(Nc1ccc(S(=O)(=O)N2CCCCC2)cc1)C1CC(=O)N(c2ccc(Cl)cc2)C1", "note": "(stereo not drawn)", "Potency": "inconclusive [inhibitor, partial curve]"}
{"smiles": "CCN(C(=O)CSc1nnc(Nc2cccc(C)c2C)s1)C1CCS(=O)(=O)C1", "note": "(stereo not drawn)", "Potency": "active: 8.28 µM"}
{"smiles": "O=C(Cc1cccc(F)c1F)NC1CCCN(Cc2ccc(Cl)cc2)C1", "note": "(stereo not drawn)", "Potency": "inconclusive [inhibitor, partial curve]"}
{"smiles": "COc1ccc(-c2cc3nc(C)c(CCC(=O)NCc4ccc(F)cc4)c(C)n3n2)c(OC)c1", "Potency": "inconclusive [inhibitor, single point]"}
{"smiles": "COc1ccc(CCOC(=O)c2ccc(N)c([N+](=O)[O-])c2)cc1", "activity change, negative = inhibition": "inactive: 9.78%"}
{"smiles": "COc1ccc(Cn2nnc3c(=O)[nH]c(C4CCN(S(=O)(=O)c5ccc(C)cc5)CC4)nc32)cc1", "Potency": "inconclusive [inhibitor, partial curve]"}
{"smiles": "COc1cc(=O)n(C)c2c(OCC(O)C(C)(C)O)cccc12", "note": "(stereo not drawn)", "activity change, negative = inhibition": "inactive: 35.4%"}
{"smiles": "Cc1nn(Cc2ccccc2Cl)c(C)c1NC(=O)c1ccn(C)n1", "activity change, negative = inhibition": "inactive: 2%"}
{"smiles": "CCOc1ccccc1NC(=O)CCN1CCN(S(=O)(=O)c2ccc(OC)cc2)CC1", "Potency": "inconclusive [inhibitor, single point]"}
{"smiles": "Cc1ccc(CCNC(=O)CNC(=S)N(Cc2ccccc2)Cc2cccnc2)cc1", "Potency": "inconclusive [inhibitor, full curve, poor fit]"}
{"smiles": "CCN(CC(=O)Nc1ccc(NC(C)=O)cc1)C(=O)c1ccc(=O)n(C)n1", "activity change, negative = inhibition": "inactive: -4.08%"}
{"smiles": "O=C(CSc1nc2ccccc2c(=O)n1-c1ccc(OC(F)F)cc1)NCc1cccs1", "Potency": "inconclusive [inhibitor, single point]"}
{"smiles": "CCC(C)(C)NC(=O)C(c1ccc(OC)cc1)N(C(=O)CCC(=O)Nc1cc(C)on1)C(C)(C)C", "note": "(stereo not drawn)", "Potency": "inconclusive [inhibitor, single point]"}
{"smiles": "Cc1cccc(N2CCN(Cc3nc(-c4cccc(Oc5ccccc5)c4)oc3C)CC2)n1", "Potency": "inconclusive [inhibitor, single point]"}
{"smiles": "CCOC(=O)c1ccccc1NC(=O)CSc1cccc[n+]1[O-]", "Potency": "inconclusive [inhibitor, full curve, poor fit]"}
{"smiles": "COc1ccccc1-c1cc(C(F)(F)F)nc(S(=O)(=O)CCCC(=O)NCc2ccc(F)cc2)n1", "Potency": "inconclusive [inhibitor, single point]"}
{"smiles": "CCOC(=O)c1nn(-c2ccccc2)c(-c2ccccc2)c1C(=O)c1ccccc1", "Potency": "inconclusive [inhibitor, single point]"}
{"smiles": "Cc1nn(Cc2ccccc2)c2sc(C(=O)N3CCN(Cc4ccc5c(c4)OCO5)CC3)cc12", "Potency": "active: 10.4 µM"}
{"smiles": "O=C(COc1ccc(Cl)cc1Cl)NC(=S)Nc1ccccc1C(=O)O", "activity change, negative = inhibition": "inactive: 34.3%"}
{"smiles": "COc1ccc(OCC(=O)Nc2cc(NC(=O)c3ccco3)ccc2OC)cc1", "Potency": "inconclusive [inhibitor, partial curve, poor fit]"}
{"smiles": "CCCn1c(=O)n(C)c(=O)c2c(SCC(=O)Nc3cc(C)on3)nc(C(C)(C)C)nc21", "Potency": "active: 10.4 µM"}
{"smiles": "CNC(=O)c1c(NC(=O)CCS(=O)(=O)c2ccc(C)cc2)sc2c1CCN(C(=O)OC)C2", "Potency": "inconclusive [inhibitor, single point]"}
{"smiles": "COc1ccc(S(=O)(=O)N2CCc3ccccc32)cc1C(=O)Nc1ccc(C(N)=O)cc1", "Potency": "inconclusive [inhibitor, partial curve]"}
{"smiles": "CCN(CC)C(=O)COC(=O)C1=NN(c2cc(C)ccc2C)C(=O)CC1", "Potency": "inconclusive [inhibitor, partial curve, poor fit]"}
{"smiles": "Cc1nn2c(NC(C)C)c3c(nc2c1-c1ccccc1)CCC3", "Potency": "inconclusive [inhibitor, partial curve]"}
{"smiles": "CCN(c1ccccc1)S(=O)(=O)c1ccc(OC)c(NC(=O)c2cccs2)c1", "activity change, negative = inhibition": "inactive: 21%"}
{"smiles": "CC(O)[C@H]1CNCCN1CCc1cc(C(F)(F)F)cc(C(F)(F)F)c1", "note": "(stereo partly drawn)", "Potency": "inconclusive [inhibitor, single point]"}
{"smiles": "COC(=O)N/N=C/c1cc(C)n(-c2ccc(Br)cc2)c1C", "Potency": "inconclusive [inhibitor, single point]"}
{"smiles": "Cn1c(=O)c2c(SCc3c(F)cccc3Cl)nc(CC(C)(C)C)nc2n(C)c1=O", "activity change, negative = inhibition": "inactive: 4.76%"}
{"smiles": "CC(=O)Nc1ccc(S(=O)(=O)N2CCN(c3ncccn3)CC2)cc1", "Potency": "inconclusive [inhibitor, partial curve, poor fit]"}
{"smiles": "O=C(CN1CCN(S(=O)(=O)c2ccc3c(c2)OCCO3)CC1)Nc1cccc(F)c1", "activity change, negative = inhibition": "inactive: -13.8%"}
{"smiles": "COc1ccccc1Nc1nc(Cl)c(C=O)s1", "Potency": "inconclusive [inhibitor, single point]"}
{"smiles": "Cc1ccc(OCC(=O)N2CCN(S(C)(=O)=O)CC2)cc1", "Potency": "inconclusive [inhibitor, single point]"}
{"smiles": "CSc1nc(N(C)NC(=O)c2ccc(Cl)cc2)c2ccccc2n1", "Potency": "active: 3.29 µM"}
{"smiles": "CCOC(=O)c1c(C)[nH]c(C(=O)OCC(=O)c2ccc3c(c2)NC(=O)CO3)c1C", "Potency": "inconclusive [inhibitor, single point]"}
{"smiles": "CN(Cc1ccc(Cl)c(Cl)c1)C(=O)C1CSC2(C)CCC(=O)N12", "note": "(stereo not drawn)", "Potency": "inconclusive [inhibitor, single point]"}
{"smiles": "Cc1cc(OCC(=O)N2CCN(c3ncccn3)CC2)ccc1Cl", "Potency": "inconclusive [inhibitor, single point]"}
{"smiles": "Cc1cc(NC(=O)CCC(=O)N(Cc2ccco2)C(C(=O)NC2CCCC2)c2ccc(F)cc2)no1", "note": "(stereo not drawn)", "Potency": "inconclusive [inhibitor, single point]"}
{"smiles": "Clc1ccc(-c2c[n+](Cc3ccc(Br)cc3)c3n2CCCCC3)cc1", "Potency": "active: 0.415 µM"}
{"smiles": "O=C(c1cccc(Cl)c1)c1nn(-c2ccccc2)c(=O)cc1C(F)(F)F", "Potency": "inconclusive [inhibitor, partial curve]"}
{"smiles": "CCn1cc(C2C3=C(CC(C)(C)CC3=O)N(c3ccccc3)C3=C2C(=O)CC(C)(C)C3)c(C)n1", "Potency": "inconclusive [inhibitor, partial curve, poor fit]"}
{"smiles": "COc1cc(CC(=O)NC(c2ccccc2)c2ccccc2)cc(OC)c1OC", "Potency": "inconclusive [inhibitor, partial curve, poor fit]"}
{"smiles": "COC(=O)C1=C(c2cccc(OCc3ccccc3)c2)C[C@@H]2CC[C@H]1N2C(=O)NCc1ccccc1", "Potency": "active: 13.1 µM"}
{"smiles": "CC(Sc1nnc(COc2ccc(Cl)cc2)n1Cc1ccco1)C(=O)N1CCNC1=O", "note": "(stereo not drawn)", "Potency": "inconclusive [inhibitor, partial curve, poor fit]"}
{"smiles": "O=C(N1CCN(Cc2ccc3c(c2)OCO3)CC1)C(Cl)(Cl)Cl", "Potency": "inconclusive [inhibitor, partial curve, poor fit]"}
{"smiles": "O=C1c2oc3ccccc3c(=O)c2C(c2cccc(Br)c2)N1Cc1ccco1", "note": "(stereo not drawn)", "activity change, negative = inhibition": "inactive: 3.67%"}
{"smiles": "C[N+]12CCC(CC1)C(C(O)(c1ccccc1)c1cccs1)C2", "note": "(stereo not drawn)", "Potency": "active: 11.7 µM"}
{"smiles": "Cc1ccc(C(C)C)c(OCCCn2ccnc2C)c1", "Potency": "inconclusive [inhibitor, single point]"}
{"smiles": "COc1cc(C)c(S(=O)(=O)N2CCOCC2)cc1C(C)C", "Potency": "inconclusive [inhibitor, single point]"}
{"smiles": "C/C(=N/NC(=O)CNC(=O)c1cccnc1)c1ccco1", "activity change, negative = inhibition": "inactive: 23.8%"}
{"smiles": "COC(=O)C1=C(C)NC(=S)NC1c1ccc(OCC(=O)N2CCCCC2)c(OC)c1", "note": "(stereo not drawn)", "Potency": "inconclusive [inhibitor, single point]"}
{"smiles": "CC(C)c1cc(C(=O)NCc2cccnc2)no1", "Potency": "inconclusive [inhibitor, partial curve]"}
{"smiles": "Cc1cc(OC(C)C(=O)NCC2CCCO2)cc(C)c1Cl", "note": "(stereo not drawn)", "activity change, negative = inhibition": "inactive: 3.92%"}
{"smiles": "NCC(O)CN(c1ccccc1)c1ccccc1", "note": "(stereo not drawn)", "Potency": "inconclusive [inhibitor, partial curve]"}
{"smiles": "COc1ccc(SC[C@H](C)CN2CC[C@H](C(C)(C)C)CCC2=O)cc1", "Potency": "inconclusive [inhibitor, single point]"}
